To fix the notation:
B1: GPR68, Q15743 (parent)
chain: MGNITADNSSMSCTIDHTIHQTLAPVVYVTVLVVGFPANCLSLYFGYLQIKARNELGVYLCNLTVADLFYICSLPFWLQYVLQHDNWSHGDLSCQVCGILLYENIYISVGFLCCISVDRYLAVAHPFRFHQFRTLKAAVGVSVVIWAKELLTSIYFLMHEEVIEDENQHRVCFEHYPIQAWQRAINYYRFLVGFLFPICLLLASYQGILRAVRRSHGTQKSRKDQIQRLVLSTVVIFLACFLPYHVLLLVRSVWEASCDFAKGVFNAYHFSLLLTSFNCVADPVLYCFVSETTHRDLARLRGACLAFLTCSRTGRAREAYPLGAPEASGKSGAQGEEPELLTKLHPAFQTPNSPGSGGFPTGRLA

Scores with a large standard error are left out. Two further conditions of the source, in which the scores hardly spread, are not listed. Read del as a deletion of the residues named and ins as an insertion between two positions. For some assays here: The data file names ogerin without a concentration.

The variants in data set [1] derive from B1. Kind of data set: cAMP reporter score (Enrich2 score, wild type = 0); higher = more signal; HEK293T, FACS bins.
The variants in data set [2] derive from B1. In words: surface expression score (Enrich2 score, wild type = 0); higher = more signal; HEK293T, FACS bins.

These results are taken from the GPR68 mutational scans of Howard et al. (2025).

Take F359_P360insGSG: the cAMP reporter score in data set [1] (pH 5.5) turned out to be 1.33; in data set [1] (pH 6), 1.32; in data set [1] (pH 6, modulator: ogerin) it was 1.51; in data set [1] (pH 6.5, modulator: ogerin), 1.17. Besides, the surface expression score in data set [2] is 1.85.
As for T18_I19del, the cAMP reporter score is -1.21 in data set [1] (pH 6) and -0.195 in data set [1] (pH 6.5, modulator: ogerin). In data set [2], the surface expression score is -1.13.
Consider P354_G355insGS, for which the cAMP reporter score in data set [1] (pH 5.5) was 0.072; in data set [1] (pH 6), 0.036; in data set [1] (pH 6, modulator: ogerin), 0.376; in data set [1] (pH 6.5, modulator: ogerin), -0.401. Moreover, in data set [2], the surface expression score amounted to 0.094.
The corresponding values for P354_G355insGSG are 0.836, -0.263, 0.953, 0.683 and 0.819.
The corresponding values for T361_G362insG are -0.042, -0.325, 0.27, -0.359 and 0.219.
Regarding G355_S356insG, the cAMP reporter score in data set [1] (pH 5.5) is 1.84; in data set [1] (pH 6, modulator: ogerin), 2.27; in data set [1] (pH 6.5, modulator: ogerin), 1.46. Further, the surface expression score in data set [2] is 0.997.
Turning to P351_S353del, the cAMP reporter score in data set [1] (pH 5.5) came out at 0.83; in data set [1] (pH 6), 0.426; in data set [1] (pH 6, modulator: ogerin), 0.924; in data set [1] (pH 6.5, modulator: ogerin), 0.414. For the same variant, the surface expression score in data set [2] was determined as 0.172.
The corresponding values for P351G are -0.18, -0.4, 0.216, 0.38 and -0.076.
The corresponding values for P351Q are -0.116, -0.217, -0.082, -0.84 and 0.017.
The corresponding values for P351T are 0.821, 0.118, 0.585, 0.871 and 0.74.
For the variant P351C, the cAMP reporter score in data set [1] (pH 5.5) was 0.462; in data set [1] (pH 6), -0.98; in data set [1] (pH 6, modulator: ogerin), 0.429; in data set [1] (pH 6.5, modulator: ogerin) it was 0.405. For the same variant, the surface expression score in data set [2] was 0.459.
The corresponding values for P351F are 1.86, 0.28, 1.27, 0.209 and 1.31.
The corresponding values for P351Y are 0.997, 0.9, 1.08, 0.445 and 0.654.
The corresponding values for P351K are 0.888, 0.211, 0.176, 0.212 and -0.48.
As for P351M, the cAMP reporter score is 1.07 in data set [1] (pH 5.5); -0.501 in data set [1] (pH 6); 1.21 in data set [1] (pH 6, modulator: ogerin); 0.675 in data set [1] (pH 6.5, modulator: ogerin). The surface expression score in data set [2] was 0.375.
The corresponding values for P351L are 0.999, 0.879, 1.33, 0.952 and 1.52.
The corresponding values for P351R are -0.934, -1.1, -0.963, -1.08 and 0.043.
Consider P351H, for which the cAMP reporter score was 0.56 in data set [1] (pH 5.5); 1.07 in data set [1] (pH 6); 0.752 in data set [1] (pH 6, modulator: ogerin).
Consider P351A, for which the cAMP reporter score in data set [1] (pH 5.5) was -0.213; in data set [1] (pH 6), -0.677; in data set [1] (pH 6, modulator: ogerin), -0.739; in data set [1] (pH 6.5, modulator: ogerin), 0.169.
Consider P351V, for which the cAMP reporter score came out at 2.11 in data set [1] (pH 5.5); 1.89 in data set [1] (pH 6); 2.34 in data set [1] (pH 6, modulator: ogerin); 2 in data set [1] (pH 6.5, modulator: ogerin). Besides, the surface expression score in data set [2] turned out to be 1.25.
The corresponding values for P351N are -0.549, -0.763, -0.646, -0.04 and -0.796.
The corresponding values for P351E are -0.182, -0.228, -0.173, -0.35 and 0.552.
Regarding P351I, the cAMP reporter score is 1.16 in data set [1] (pH 5.5); 0.278 in data set [1] (pH 6, modulator: ogerin); 0.864 in data set [1] (pH 6.5, modulator: ogerin). In data set [2], the surface expression score is -0.151.
For P351S, the cAMP reporter score was -0.877 in data set [1] (pH 5.5); -0.516 in data set [1] (pH 6); -0.834 in data set [1] (pH 6, modulator: ogerin); -0.376 in data set [1] (pH 6.5, modulator: ogerin). Besides, in data set [2], the surface expression score is -0.75.
In the case of P351D, the cAMP reporter score was 0.205 in data set [1] (pH 5.5); 1.24 in data set [1] (pH 6); -0.049 in data set [1] (pH 6, modulator: ogerin); 0.342 in data set [1] (pH 6.5, modulator: ogerin). In addition, the surface expression score in data set [2] worked out at 0.337.
The corresponding values for P360_T361insG are -0.164, -0.612, -0.314, -0.202 and 0.457.
On to R363_L364del, for which the cAMP reporter score in data set [1] (pH 5.5) is -0.1; in data set [1] (pH 6, modulator: ogerin), 1.02; in data set [1] (pH 6.5, modulator: ogerin), -0.035. Also, in data set [2], the surface expression score turned out to be 0.163.
Turning to S353_P354del, the cAMP reporter score in data set [1] (pH 5.5) was found to be 0.178; in data set [1] (pH 6), 0.508; in data set [1] (pH 6, modulator: ogerin) it was 0.686; in data set [1] (pH 6.5, modulator: ogerin), 0.598. Besides, the surface expression score in data set [2] is -0.327.
On to P351_N352insG, for which the cAMP reporter score in data set [1] (pH 5.5) was -0.073; in data set [1] (pH 6) it was 1.18; in data set [1] (pH 6.5, modulator: ogerin) it was 1.24. In addition, the surface expression score in data set [2] worked out at 1.39.
As for T361_G362insGS, the cAMP reporter score came out at 0.306 in data set [1] (pH 5.5); 1.35 in data set [1] (pH 6); 0.284 in data set [1] (pH 6, modulator: ogerin); 0.526 in data set [1] (pH 6.5, modulator: ogerin). Further, the surface expression score in data set [2] is -0.443.
The corresponding values for G357_F359del are 0.979, -0.003, 0.286, 0.533 and 0.617.
